# In all, about 33,000 sequences were measured (“E-score (-0.5 to 0.5)”: median about -0.04, highest 2% from about 0.36 on). Some of the results follow.
# Biological target: T1, Hmlalpha2 (UniProt P0CY09)
# T1 sequence: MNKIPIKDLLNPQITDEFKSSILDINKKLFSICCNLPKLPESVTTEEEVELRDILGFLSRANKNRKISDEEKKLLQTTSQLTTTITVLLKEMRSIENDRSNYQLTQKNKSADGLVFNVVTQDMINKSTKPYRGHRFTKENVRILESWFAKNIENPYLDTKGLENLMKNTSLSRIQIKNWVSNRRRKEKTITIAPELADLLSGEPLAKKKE
# Experiment: PBM E-score (8-mer binding enrichment) (E-score (-0.5 to 0.5)); higher = stronger / more preferred TF binding; most listed sequences are background and not binding sites
# Details: protein concentration: 200 nM; construct: GST-full length
# In short: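 Each ungapped eight-base word and its reverse complement, pooled, received an E-score from the Universal PBM Analysis Suite. Underlying scans, normalised with masliner, recorded fluorescent anti-GST bound to GST-tagged yeast transcription factors. These were applied at about 100-200 nM to universal all-10-mer Agilent arrays double-stranded by primer extension.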
row,Sequence,PBM E-score
1,ATTGCCTG,-0.0639
2,GAACATTA,0.19
3,AGGGCCTG,-0.0997
4,CCATCACA,0.00393
5,AACTGATG,0.0686
6,CACGGATG,0.0633
7,GTACGAAA,0.161
8,GAACTATA,0.0407
9,ACTCTAGG,-0.076
10,CGGACAGC,-0.205
11,CCGAGAGA,-0.267
12,ACGCGCGA,0.0725
13,AGTTATAT,0.0626
14,AACTCATA,-0.00023
15,AAAGAGCA,0.00963
16,AGCGCCAA,-0.264
17,CGGGACAG,-0.212
18,GAGTTTCC,-0.117
19,GTTGCTCA,-0.0575
20,ACAGAGTC,-0.0414
21,GTTACCAA,0.062
22,ACTCACCT,-0.122
23,CGGTATAC,-0.0511
24,GGTATGCA,-0.0286
25,CGCTTGGA,-0.106

row,Sequence,PBM E-score
1,TATCTCGA,-0.125
2,AGTGTAAA,0.38
3,CAGTATGC,-0.113
4,GGCTCGAC,-0.0678
5,GCCTCACC,-0.249
6,ATCGATGG,-0.0457
7,AAGGTTGC,-0.187
8,AGAGGCCT,-0.263
9,GTGCCAGA,-0.241
10,GCAGCAAA,-0.162
11,GATCCTCC,-0.301
12,ACTCTAAT,-0.0809
13,ACTCCAAC,0.0145
14,CACGTGTC,0.25
15,GGGCCCAA,-0.178
16,CGGGGGGC,-0.339
17,GGGATTGA,-0.172
18,AAATCTAA,0.122
19,AGTTTTGA,0.0892
20,CTTCAGAA,-0.0755
21,CCCTACGC,-0.0571
22,CCCCACCC,-0.206
23,GCCTGAAC,-0.15
24,GGGCCACC,-0.289
25,GTGTTTCA,0.177

row,Sequence,PBM E-score
1,CTCGGCGA,-0.155
2,ATGTAACA,0.454
3,AAAGGAAA,0.0903
4,AGGAAGGC,-0.214
5,GCTATAAC,0.101
6,ACCTTCGG,-0.2
7,CCATATTC,-0.149
8,ATCAGCCC,-0.147
9,CAATGTCC,-0.16
10,GACATTGC,0.0989
11,ATATTTAA,0.194
12,CGGTACTC,-0.0118
13,ATGGTCCC,-0.177
14,TCACCCGA,-0.0984
15,AGAGCAAT,-0.168
16,AAGAGCGG,-0.279
17,CACCTTTC,-0.12
18,TCAGACGA,-0.155
19,AAAAAGAC,0.0588
20,AGCTGATA,-0.016
21,CTAAGTAC,0.198
22,CACATCAC,0.0743
23,AAGAGGAC,-0.254
24,GCATAAAC,0.12
25,CGGGCCAA,-0.332

row,Sequence,PBM E-score
1,CACTAAGA,0.0645
2,AACATAGT,0.297
3,ATAGCTCA,-0.074
4,ATCCTGTC,-0.014
5,ACGTAGCT,0.209
6,GCAGCGCC,-0.197
7,CGGTGTCC,-0.317
8,ACTTTTTA,0.219
9,AAGATAAC,0.177
10,TGCCCTAA,-0.287
11,ATCGTAAA,0.253
12,GGCGTGTA,0.464
13,CTGGGTGA,-0.194
14,GCAACGCA,-0.106
15,AATGGCGC,-0.252
16,AAGGTGGA,-0.0209
17,CGGTAAAC,0.0646
18,ATGCCAAA,0.0717
19,CGATTACA,0.461
20,AGACATCG,-0.123
21,ATCCTGAA,0.0909
22,CGACGTAA,0.266
23,CGACTCAA,-0.0472
24,GTCCCCGA,-0.136
25,ACCGGTAT,-0.11

row,Sequence,PBM E-score
1,CACAGCAA,0.203
2,ACTGCTAT,-0.178
3,TAGACTCA,-0.131
4,ACTCGGTC,0.0522
5,GCGCAAGC,0.026
6,ACGCTTAA,0.147
7,ACACCAGC,-0.128
8,AACTCGCG,0.142
9,ACTAGTCC,-0.0798
10,GCCTACTA,0.0415
11,ATTAGTTG,0.114
12,CTAATACC,-0.0459
13,GGGTAAGA,-0.136
14,TACCATCA,-0.177
15,CGCTTTGA,-0.0981
16,AGGGGACC,-0.179
17,ATAATAAA,0.278
18,AGGACTAG,0.00427
19,GATGCACC,-0.125
20,CGTTTGTC,0.055
21,GATTGCCC,-0.187
22,CTAACCAC,0.00438
23,ACTGCTTC,-0.241
24,AATGTTCA,0.133
25,CAAGAAGG,-0.151

row,Sequence,PBM E-score
1,GTGGACCA,-0.0852
2,CACTCTGC,-0.0876
3,CGGGGGCC,-0.273
4,GGTCGGTA,-0.0807
5,AGACTGAT,-0.0844
6,CGTCAAGC,-0.159
7,GTCCGTGA,-0.038
8,GCCATGGA,-0.178
9,GAGTACGA,-0.00617
10,TCGGCTCA,-0.194
11,GCAGTATA,-0.159
12,CGTCGCGA,-0.0238
13,AACATGAC,0.425
14,ACCTGGCT,-0.212
15,TATCGGAA,0.00594
16,GTGCCCTA,-0.263
17,GTCGCTTA,0.0108
18,CTAGCGAC,0.0263
19,AATCCCAG,-0.121
20,AGTCCATC,-0.116
21,GTCTTTAA,0.112
22,CCGTATAG,-0.131
23,ATTTTATG,0.0728
24,CTACGTGC,0.0196
25,AGACATAA,0.143

row,Sequence,PBM E-score
1,GCAGAAGA,-0.114
2,CCAGTACG,-0.0287
3,ATCGCGGG,-0.16
4,AGTCTGAG,-0.307
5,AGTTAAGG,0.0151
6,ACATAGCA,0.392
7,ACTGCTCG,-0.0631
8,CTATTTAA,-0.0611
9,TAGGAATA,-0.189
10,AGTCAGGA,-0.143
11,TCGAGAAA,0.0758
12,AGGGAAGC,-0.32
13,GCGGGGAA,-0.0781
14,AGAAAAAG,-0.153
15,CTGCCAAG,-0.0746
16,CCTTCCCG,-0.275
17,GAAGGCCC,-0.289
18,CGGGCCGA,-0.227
19,TCCTAGCA,-0.0161
20,CCGAATGC,-0.125
21,TTCAAGAA,0.155
22,GGTTGTAA,0.342

# Source: the supplement of paper PMC3334620
